Data: PMC4336329 (PLoS ONE, 2015)
Out of some 310,000 compounds screened, about 2,200 (0.71%) showed an effect of 50% or more. Effects have a minus sign here. The list shows a part of the results.

What follows are compounds tested against human ether-à-go-go-related gene (hERG) potassium channel (human, UniProt Q12809) (assay: primary screen, population patch clamp on CHO cells stably expressing hERG).
Chain of human ether-à-go-go-related gene (hERG) potassium channel (Q12809 whole entry, looked up): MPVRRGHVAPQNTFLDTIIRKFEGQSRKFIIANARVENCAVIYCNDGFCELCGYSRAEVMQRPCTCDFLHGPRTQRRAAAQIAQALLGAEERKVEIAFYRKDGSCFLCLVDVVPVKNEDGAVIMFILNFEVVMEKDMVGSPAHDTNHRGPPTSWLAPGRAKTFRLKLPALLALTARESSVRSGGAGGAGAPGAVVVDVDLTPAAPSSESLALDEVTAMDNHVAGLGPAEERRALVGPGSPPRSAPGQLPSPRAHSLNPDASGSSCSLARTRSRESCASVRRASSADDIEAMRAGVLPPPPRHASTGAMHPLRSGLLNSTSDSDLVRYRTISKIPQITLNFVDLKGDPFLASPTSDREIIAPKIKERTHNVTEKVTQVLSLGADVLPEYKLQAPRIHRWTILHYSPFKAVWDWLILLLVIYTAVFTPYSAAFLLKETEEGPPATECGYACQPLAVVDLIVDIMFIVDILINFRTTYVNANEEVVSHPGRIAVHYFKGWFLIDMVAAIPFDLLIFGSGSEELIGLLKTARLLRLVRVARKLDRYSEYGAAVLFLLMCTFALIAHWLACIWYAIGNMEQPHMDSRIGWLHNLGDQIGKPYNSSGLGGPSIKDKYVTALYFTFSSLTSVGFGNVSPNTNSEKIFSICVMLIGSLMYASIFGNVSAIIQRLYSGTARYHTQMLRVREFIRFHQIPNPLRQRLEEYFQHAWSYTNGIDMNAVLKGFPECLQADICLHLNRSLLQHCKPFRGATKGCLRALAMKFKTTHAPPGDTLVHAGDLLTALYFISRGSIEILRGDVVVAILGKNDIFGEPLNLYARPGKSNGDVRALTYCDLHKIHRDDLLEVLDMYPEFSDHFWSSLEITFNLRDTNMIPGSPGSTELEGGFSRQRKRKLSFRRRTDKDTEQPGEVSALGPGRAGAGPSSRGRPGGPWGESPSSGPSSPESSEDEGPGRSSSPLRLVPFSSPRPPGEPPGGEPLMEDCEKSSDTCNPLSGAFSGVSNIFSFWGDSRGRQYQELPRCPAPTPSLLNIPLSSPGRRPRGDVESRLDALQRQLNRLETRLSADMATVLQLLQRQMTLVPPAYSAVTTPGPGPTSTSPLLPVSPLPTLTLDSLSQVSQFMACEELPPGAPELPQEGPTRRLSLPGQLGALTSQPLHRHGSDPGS

Going from COc1ccc(S(=O)(=O)N2c3ccccc3OCC2CC(=O)O)cc1 (stereo not shown) to O=C(NC1CCN(S(=O)(=O)c2ccc(F)cc2)CC1)c1ccccc1, the “hERG current change (%, negative = inhibition) at 1uM” value rises from 7.42% to 8.67%.

First: CC(=O)N(c1nc(/C=C\C(=O)O)cs1)c1ccccc1F
Second: CC(CC(=O)O)Nc1ccccc1O (stereo not shown)
The “hERG current change (%, negative = inhibition) at 1uM” value of the first is lower: 10.9% for the first, 16.5% for the second.

Compared with Cn1c(C(=O)OC(C(=O)NCc2ccco2)c2ccncc2)cc2sccc21 (stereo not shown), CC(Sc1nnc(Cn2c(=O)sc3ccccc32)n1C)c1ccccc1 (stereo not shown) is higher in “hERG current change (%, negative = inhibition) at 1uM” value: -18.9% for the first, -8.23% for the second.

Going from O=C(Nc1nnc(S(=O)(=O)Cc2ccc(F)cc2)s1)c1ccccc1F to O=C(NC1(C(F)(F)F)NC(=O)N(c2ccc(F)cc2)C1=O)c1cccs1 (stereo not shown), the “hERG current change (%, negative = inhibition) at 1uM” value falls from 10.9% to -3.72%.

Going from O=C(NCCCN1CCCCC1)C1CC(=O)N(CCc2ccccc2)C1 (stereo not shown) to CCOC(=O)C1(Cc2ccccc2)CCCN(CCO)C1 (stereo not shown), the “hERG current change (%, negative = inhibition) at 1uM” value rises from 8.46% to 12.9%.

Going from COc1ccc(C(=O)Nc2cc(C)on2)c(OC)c1 to COc1ccc(OC)c(NC(=O)c2nnn(CCc3ccccc3)c2N)c1, the “hERG current change (%, negative = inhibition) at 1uM” value falls from 10.7% to 10.3%.

Compared with O=C(CCn1c(=O)oc2ccccc21)Nc1cccc(Br)c1, CCCC(=O)Nc1ccc(C(=O)NCc2ccccn2)cc1 is lower in “hERG current change (%, negative = inhibition) at 1uM” value: 14.4% for the first, 4.39% for the second.

Compared with CCCCOc1ccc(CN=C(N)N)cc1Cl, COc1ccc(C(=O)OCn2nnc3ccccc3c2=O)cc1OC is lower in “hERG current change (%, negative = inhibition) at 1uM” value: 8.58% for the first, 1.76% for the second.

First: Br.O=C(NCCNCc1ccccn1)c1ccco1
Second: O=C(N/N=C/c1ccccn1)c1ccc(Br)o1
The “hERG current change (%, negative = inhibition) at 1uM” value of the first is higher: 12.8% for the first, 10.1% for the second.

Compared with Cc1cccc(NS(=O)(=O)c2ccc(-c3cnc(C4CC4)o3)cc2)c1C, CC(=O)Nc1ccc(S(=O)(=O)NCCc2c[nH]c3ccc(C)cc23)cc1 is higher in “hERG current change (%, negative = inhibition) at 1uM” value: 13.6% for the first, 19.5% for the second.

Going from Nc1nc(-c2c(Cl)cccc2Cl)no1 to O=C(Cn1ncc(Cl)c(Cl)c1=O)Nc1ccc2c(c1)OCO2, the “hERG current change (%, negative = inhibition) at 1uM” value falls from 9.63% to -3.02%.

Going from COc1ccc2cc(/C=N/NC(=O)CN(c3ccccc3C)S(=O)(=O)c3ccccc3)c(Cl)nc2c1 to CC(=O)Nc1ccc(S(=O)(=O)N(C)CC(=O)N/N=C/c2ccncc2)cc1, the “hERG current change (%, negative = inhibition) at 1uM” value rises from 0.162% to 16.4%.

Compared with Cc1ccc(-n2[nH]c(C)c(C=Nc3ccc4[nH]c(=O)[nH]c4c3)c2=O)cc1C, COc1cccc2c(SCC(=O)N/N=C/c3ccc(O)c(O)c3)cc(C)nc12 is higher in “hERG current change (%, negative = inhibition) at 1uM” value: 2.58% for the first, 12.8% for the second.

Going from COCC(C)n1c(C)cc(C(=O)CSc2nnnn2C2CCCC2)c1C (stereo not shown) to COc1ccccc1-c1noc(CCCC(=O)NC2CCCCC2)n1, the “hERG current change (%, negative = inhibition) at 1uM” value rises from 5.12% to 7.28%.

Compared with COC(=O)CCC(=O)c1oc2ccc(Cl)cc2c1NC(=O)CCCN1C(=O)c2ccccc2C1=O, CCc1nnc(/N=C/c2c(O)n(-c3ccc(Cl)cn3)c(=O)c3ccccc23)s1 is higher in “hERG current change (%, negative = inhibition) at 1uM” value: 4.24% for the first, 4.82% for the second.

Going from O=c1c2cnn(-c3ccc(F)cc3)c2ncn1Cc1cccnc1 to O=C(c1ccco1)[C@@H]1[C@@H]2C(=O)N(c3ccc(F)cc3)C(=O)[C@@H]2[C@H]2C=Cc3ccccc3N21, the “hERG current change (%, negative = inhibition) at 1uM” value rises from 4.83% to 11.2%.

Going from Nc1nnc(SCC(=O)NC2CCCCC2)s1 to O=C(CSc1ncccn1)Nc1ccc(S(=O)(=O)N2CCCCC2)cc1, the “hERG current change (%, negative = inhibition) at 1uM” value falls from 12.9% to 4.38%.

Going from COc1ccc(N2C(=O)C(CN3CCCCC3)C2c2ccccc2)cc1 (stereo not shown) to COc1ccccc1CN1CC(C(=O)NCc2cccc(C)n2)CCC1=O (stereo not shown), the “hERG current change (%, negative = inhibition) at 1uM” value rises from -4.22% to 16.9%.

First: CC(C)OCCCNC(=O)c1ccc(N(C)S(C)(=O)=O)cc1
Second: Cc1ccc2nc(SC(C)C(=O)NCc3ccc4c(c3)OCO4)[nH]c2c1 (stereo not shown)
The “hERG current change (%, negative = inhibition) at 1uM” value of the first is higher: 16.2% for the first, 9.48% for the second.

First: COc1cccc(Cn2cnc3c(NS(=O)(=O)c4ccc(Cl)cc4Cl)c(C)c(C)cc32)c1
Second: CCC(=O)Nc1c(C(=O)N2CCN(c3ccccn3)CC2)cnn1-c1ccc(Cl)cc1
The “hERG current change (%, negative = inhibition) at 1uM” value of the first is higher: 4.63% for the first, 1.68% for the second.

First: O=C(CN1CCN(S(=O)(=O)c2ccc(Br)s2)CC1)N1CCCCC1
Second: Cc1ccc(C(=O)OCC(=O)c2c(N)n(C)c(=O)n(C)c2=O)cc1S(=O)(=O)N1CCCCC1
The “hERG current change (%, negative = inhibition) at 1uM” value of the first is lower: -2.89% for the first, 10.9% for the second.

First: O=c1[nH][nH]c(-c2ccccc2O)c1C(C[N+](=O)[O-])c1ccccc1 (stereo not shown)
Second: Cc1cc2cc(CN(CC3CCCO3)C(=S)NCc3ccco3)c(=O)[nH]c2cc1C (stereo not shown)
The “hERG current change (%, negative = inhibition) at 1uM” value of the first is higher: 14% for the first, 7.38% for the second.

Compared with Cc1ccc(C(C)C)c(OCc2n[nH]c(=S)o2)c1, NC(=O)c1nnsc1Sc1c(C(N)=O)nnn1-c1cccc(N)c1 is higher in “hERG current change (%, negative = inhibition) at 1uM” value: 8.13% for the first, 8.69% for the second.
